The RNAGym collection of RNA variant scans (doi:10.1093/nar/gkz1192)
Read counts are not given, so values of variants with three or more changes are uncertain.

B1: CPEB3 Ribozyme (parent)
chain: UAACAGGGGGCCACAGCAGAAGCGUUCACGUCGCAGCCCCUGUCAGAUUCUGGUGAAUCUGCGAAUUCUGCUGUAUAUCUC

Variants of: B1
Assay: self-cleavage, relative activity (ratio to wild type); higher = more cleavage; in vitro, sequencing
How it was run: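 Libraries of CPEB3 self-cleaving ribozyme mutants came from rounds of error-prone PCR and carried barcodes, which DNA sequencing matched to variants. In vitro transcription used T7 RNA polymerase at 37°C for 5 hours, with a further 15 min in DNase I before EDTA stopped the reaction; the ribozymes cleaved during both steps. The RNA was reverse transcribed with template switching and sequenced on Illumina. Relative activity is the cleaved/total read fraction of a variant divided by that of the unmutated ribozyme, averaged over three batches with at least 5 reads.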

Variant	self-cleavage
U1C G9A A15G U25A A28G	0.85
U1C G9A A21G U25A A28U U43A U60A	0.04
U1C G9A G24A A35G U43C C44A	0.17
U1C G9A G42C U66C U69C A77G	0.15
U1C G9U A21C G30A U43C	0.16
U1C G9U A35G C40U	0.07
U1C G9U C37G	0.05
U1C G9U U26A U48A U54A U76C	0.03
U1C G10A A18U	0.25
U1C G10A A21G G22C A28G U41C	0.05
U1C G10A C40A A57G A64U	0.05
U1C G10A U25C U31C A57G U78C	0.05
U1C G10A U31C U43C	0.18
U1C G10C G63A A64G	0.06
U1C G10C U25C	0.3
U1C G10U A13G U25C	0.07
U1C G16A A57G C59A	0.12
U1C G16U U60C U69A	0.07
U1C G24A U26C U48C U58C C68A	0.04
U1C G24U A56G U60C U74C	0.16
U1C G30A A35G A57G	0.09
U1C G30A A56G U60A U80A	0.04
U1C G30U A35G	0.05
U1C G30U A35G U48A A65G	0.14

Variant	self-cleavage
U1C G33U C50A U74G	0.07
U1C G36C U58A C59G	0.06
U1C G42A U58C	0.21
U1C G53A A57G	1.07
U1C G53U U66C	0.46
U1C G63A U69C U76A	0.41
U1C U25A U41A A57G U60C A65G	0.04
U1C U25C A35G U43A U66A	0.37
U1C U25C G30A U41A U51C	0.09
U1C U25C U26A G30A A56G A64U C71U	0.03
U1C U25C U43G U58G U72C U80A	0.09
U1C U25C U80C	0.25
U1C U25G A28G	0.41
U1C U25G A35G U48C U69G	0.28
U1C U26A A35G U54G U60C G73A	0.87
U1C U26A A56G	0.72
U1C U26A U31C C39U A45U A57G A64G	0.05
U1C U26C A47G U51C A57G A64G	0
U1C U26C C50A U51A U58C U69A	0.04
U1C U26C C59A	0.07
U1C U26C U51C A77U	0.47
U1C U26C U72G	0.17
U1C U26G G36A	0.06
U1C U31A A47U U66C	0.15

Variant	self-cleavage
U1C U31A U69C	0.16
U1C U31C A77U	0.9
U1C U31C U41C U54C U76C	0.71
U1C U31C U43C U48C U67A	0.06
U1C U41A U54C	0.4
U1C U41C A57G U74A	1.08
U1C U41C A65G	0.4
U1C U41C U48C A56G A75G	0.49
U1C U41C U80A	1.08
U1C U41C U80C	1.01
U1C U43A A77U	1.24
U1C U43A G52U A57G	1.13
U1C U43A U49C A56G	1.12
U1C U43A U49C U66C	0.18
U1C U43A U51A	0.98
U1C U43C G52U	0.79
U1C U43C G61A	0.34
U1C U43C U48A U51A U80C	0.35
U1C U49C U51C U60A	0.11
U1C U49C U54C U74C	0.3
U1C U49C U66C	0.06
U1C U49C U67C G73A C79U	0.12
U1C U51A C71U A77U	0.8
U1C U51A U54A G61C	0.49

Variant	self-cleavage
U1C U51C A65G	0.29
U1C U51C U54C U80C	1.16
U1C U51C U69A	0.53
U1C U54A A56G	0.82
U1C U54C U60C	0.23
U1C U54C U76C	1
U1C U54C U80C	1.09
U1C U58C A64C U66G	0.2
U1C U58G U78A	0.14
U1C U67C U69C U76C	0.23
U1C U69C U74A	0.35
U1G A13C A18G U41A U67C U72C	0.18
U1G A18G U72A	0.34
U1G A18U A64U	0.35
U1G A20U U51A A65G U76C U80C	0.07
U1G A20U U72A	0.14
U1G A45G U48A U58C U66C	0.09
U1G A57G U80C	1.03
U1G C11U U54A A56G	0.21
U1G G7U C29U U66C U69G A75G	0.04
U1G G22U U25G U26C A28C G53U	0.32
U1G U26C A35U U60C U76A	0.21
U1G U31A U43A U48C U49C A77U	0.12
U1G U43C U80C	0.51

Variant	self-cleavage
U1G U54C U78C	0.66
A2C A3C U25C G73A A75U U78C	0.28
A2C A3G A35U U54C A56G U58C A64U	0.08
A2C A3G U66C	0.34
A2C A5C G8A G52A A56G U72C	0.08
A2C A5G A13G A18G G33A	0.46
A2C A5G A13G U54A G61U U69C	0.17
A2C A5G A18G U25C A28U C62U	0.06
A2C A5G U49C U69A U80C	0.09
A2C A15G U48C	0.38
A2C A20G A45G	0.53
A2C A20G U25C U51A U58A A64U	0.24
A2C A28G A45G	0.5
A2C A45G U72A	0.45
A2C C11A U41A U60A U78A	0.3
A2C C11G G19A U26A A57U U72C U74C	0.04
A2C C11U A28G U60A U76C	0.26
A2C G6C A13G U25A U41C U66C	0.06
A2C G8A G63A U72C	0.38
A2C G9A A20G A45U U69C A75U	0.05
A2C U26C U78C	0.62
A2C U31A C62G U72C U76G	0.16
A2C U41C U69C	0.42
A2C U49A U51A U58C U60A	0.11

Variant	self-cleavage
A2G A3G A15U U41A U60A U69C	0.11
A2G A3G A18C A28G U48A	0
A2G A3G A18U C32U U41A U54A U80C	0.17
A2G A3G C34G U72C	0.78
A2G A3G G30A U41A U60C U78C	0.1
A2G A3G G46A U48C U51C U60C	0.25
A2G A3U A15G C27U U43C	0.58
A2G A3U U26A	1.05
A2G A5C A13C	0.9
A2G A5G A13U A18U A28G C40G	0.45
A2G A5G A15G U26A C38G A64G	0.07
A2G A5G A18U A20G U51A U72C	0.17
A2G A5G A20U A21G U43C	0.47
A2G A5G A20U U48G U60A	0.17
A2G A5G A35G A47U U72A	0.11
A2G A5G C17U C40A G53A U60A A64G	0.13
A2G A5G G7U G10C	0.4
A2G A5G U25C U43C U51A U78C	0.09
A2G A5G U31G U69C A75G U80A	0.12
A2G A5G U41C	0.08
A2G A5G U49A U72C	0.71
A2G A5U A15U C40U A75U	0.66
A2G A5U A18G A45G C81A	0.68
A2G A5U A28U C32U U49A U58C U66C	0.08

Variant	self-cleavage
A2G A5U C14G A18U C40U A47U A65G	0.22
A2G A5U G9U A35U C38U	0.07
A2G A5U G10A C12U	0.18
A2G A5U G16U A57G U74A	0.09
A2G A5U U58C	0.38
A2G A13C U54C A56U U80C	0.17
A2G A13G A18G U41C U49A U78A U80A	0.09
A2G A13G A18U A28U G33A U58A	0.03
A2G A13G A45G A56G U80C	0.41
A2G A13G A47G A56G U78C	0.1
A2G A13G U26C G61U U67G	0.43
A2G A13G U49C U76A	0.28
A2G A13U A28U G33U C39U A57G	0.05
A2G A13U C32A A47G	0.11
A2G A13U U31C U51C U58G G63A	0.18
A2G A15C G16U U26A U31A A45G	0.04
A2G A15C G24A U25A U67C G70C	0.07
A2G A15G A18G A20G G55A	0.64
A2G A15G A20G U41A A65G U80A	0.47
A2G A15G A21G C23U U41G U69A	0.11
A2G A15G A35G U72C	1.05
A2G A15G G24A G30U U72A	0.08
A2G A15G U25A	0.72
